{"source": "the supplement of paper PMC11741623", "binders": {"B1": {"name": "ARHGEF18, Q6ZSZ5 (protein)", "chain": "MGDDQEDDFPRRLSESMEDLSLDLGALQGSEYLQDLGLGAPSHSQPGETPDSRPTGEEPGRDSLFSSLAGSQDLSRRRSWERSRSCSESWRRLSLDASAVDEEPCLPRTLASLALNLPGGGLKTWTQGCLSGGGTPAESPGKECDSPKKRGRSRSVPVSFYEIRSPEISPGLEVPTPPVQGLEPPVLECMEKDHVEPDHVLIVQQVLQELRQYHGARQRACMSASPGGAHSNLTWFEFLSESEDGAGKNEKSDKSTSVKRRLSCLRSRVTRQKEKGKSPAHLKDKGQDARERRECVNGHQLLQGTFSGPSSCPLCGKPFLSSASLKEHPRGTLLSDGSPALSRNVGMTVSQKGGPQPTPSPAGPGTQLGPITGEMDEADSAFLKFKQTADDSLSLTSPNTESIFVEDPYTASLRSEIESDGHEFEAESWSLAVDAAYAKKQKREVVKRQDVLYELMQTEVHHVRTLKIMLKVYSRALQEELQFSSKAIGRLFPCADDLLETHSHFLARLKERRQESLEEGSDRNYVIQKIGDLLVQQFSGENGERMKEKYGVFCSGHNEAVSHYKLLLQQNKKFQNLIKKIGNFSIVRRLGVQECILLVTQRITKYPVLVERIIQNTEAGTEDYEDLTQALNLIKDIISQVDAKVSECEKGQRLREIAGKMDLKSSSKLKNGLTFRKEDMLQRQLHLEGMLCWKTTSGRLKDILAILLTDVLLLLQEKDQKYVFASVDSKPPVISLQKLIVREVANEEKAMFLISASLQGPEMYEIYTSSKEDRNAWMAHIQRAVESCPDEEEGPFSLPEEERKVVEARATRLRDFQERLSMKDQLIAQSLLEKQQIYLEMAEMGGLEDLPQPRGLFRGGDPSETLQGELILKSAMSEIEGIQSLICRQLGSANGQAEDGGSSTGPPRRAETFAGYDCTNSPTKNGSFKKKVSSTDPRPRDWRGPPNSPDLKLSDSDIPGSSEESPQVVEAPGTESDPRLPTVLESELVQRIQTLSQLLLNLQAVIAHQDSYVETQRAAIQEREKQFRLQSTRGNLLLEQERQRNFEKQREERAALEKLQSQLRHEQQRWERERQWQHQELERAGARLQEREGEARQLRERLEQERAELERQRQAYQHDLERLREAQRAVERERERLELLRRLKKQNTAPGALPPDTLAEAQPPSHPPSFNGEGLEGPRVSMLPSGVGPEYAERPEVARRDSAPTENRLAKSDVPIQLLSATNQFQRQAAVQQQIPTKLAASTKGGKDKGGKSRGSQRWESSASFDLKQQLLLNKLMGKDESTSRNRRSLSPILPGRHSPAPPPDPGFPAPSPPPADSPSEGFSLKAGGTALLPGPPAPSPLPATPLSAKEDASKEDVIFF"}, "B2": {"name": "C10orf62, Q5T681 (protein)", "chain": "MLWVQRKRRRKETSECPSDKDKSPESHKAKNESWIKSHFSRLSEEKLALDNNASASGNATQTESGSEEVSSTVHIETFTTRHGEVGSALHRESFTSRQKTSGPSVIQEIHQESGKAPSTDEATWAAVAACTKEIDTQGRHLAHSMLQRAIAYQHSGHLESKDINQEELRALEEVEMKLQKNFLTQRENTIAGANHTHTFYGHSHHSHHGHPSHQSHSLPNRRH"}, "B3": {"name": "C14orf1, Q9UKR5 (protein)", "chain": "MSRFLNVLRSWLVMVSIIAMGNTLQSFRDHTFLYEKLYTGKPNLVNGLQARTFGIWTLLSSVIRCLCAIDIHNKTLYHITLWTFLLALGHFLSELFVYGTAAPTIGVLAPLMVASFSILGMLVGLRYLEVEPVSRQKKRN"}}, "note": "The list shows a part of the results. Interaction screen of human proteins with wild-type SARS-CoV-2 proteins by split-DHFR complementation in yeast, 1 µg/mL methotrexate. Value = fitness of the pair (three or more lineages) minus that of the viral protein without a human partner, on a scale set by negative (0) and fused positive (1) controls, mean of up to three cultures; higher = more likely to interact. Active = false discovery rate below 0.05 (one-sided t-test) in at least one culture. Nearly all pairs are not hits, and differences among them are mostly noise (correlation between cultures about 0.3); most hits were seen in one culture only. Human sequences are the Swiss-Prot entries looked up by gene name; the clone may be another isoform. NSP2 values were corrected by the authors for a growth advantage. Listed are human proteins with a hit and a random twelfth of the others."}
{"target": "SARS-CoV-2 E", "test": "yeast fitness gain over the viral ORF with no human partner (scaled fitness); higher = more likely to interact", "experimental": "(§1)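 Split mouse DHFR complementation in pooled diploid yeast: human ORFeome clones carry one fragment and viral ORFs the other; barcoded lineages compete in 1 µg/mL methotrexate and fitness is read by barcode sequencing in up to three cultures.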"}
{"binder": "B1", "yeast fitness gain": "inactive: -0.215"}
{"binder": "B2", "yeast fitness gain": "inactive: -0.0423"}
{"binder": "B3", "yeast fitness gain": "inactive: -0.055"}
{"target": "SARS-CoV-2 M", "test": "yeast fitness gain over the viral ORF with no human partner (scaled fitness); higher = more likely to interact", "experimental": "as §1"}
{"binder": "B1", "yeast fitness gain": "inactive: 0.0988"}
{"binder": "B3", "yeast fitness gain": "inactive: -0.00998"}
{"target": "SARS-CoV-2 N", "test": "yeast fitness gain over the viral ORF with no human partner (scaled fitness); higher = more likely to interact", "experimental": "as §1"}
{"binder": "B1", "yeast fitness gain": "inactive: -0.0642"}
{"binder": "B2", "yeast fitness gain": "inactive: 0.0248"}
{"binder": "B3", "yeast fitness gain": "inactive: -0.0403"}
{"target": "SARS-CoV-2 NSP1", "test": "yeast fitness gain over the viral ORF with no human partner (scaled fitness); higher = more likely to interact", "experimental": "as §1"}
{"binder": "B1", "yeast fitness gain": "inactive: -0.0971"}
{"binder": "B2", "yeast fitness gain": "inactive: 0.0172"}
{"binder": "B3", "yeast fitness gain": "inactive: 0.0747"}
{"target": "SARS-CoV-2 NSP10", "test": "yeast fitness gain over the viral ORF with no human partner (scaled fitness); higher = more likely to interact", "experimental": "as §1"}
{"binder": "B1", "yeast fitness gain": "inactive: -0.0377"}
{"binder": "B2", "yeast fitness gain": "inactive: -0.0109"}
{"binder": "B3", "yeast fitness gain": "inactive: 0.053"}
{"target": "SARS-CoV-2 NSP12", "test": "yeast fitness gain over the viral ORF with no human partner (scaled fitness); higher = more likely to interact", "experimental": "as §1"}
{"binder": "B1", "yeast fitness gain": "inactive: 0.0468"}
{"binder": "B2", "yeast fitness gain": "inactive: 0.0341"}
{"binder": "B3", "yeast fitness gain": "inactive: -0.00422"}
{"target": "SARS-CoV-2 NSP13", "test": "yeast fitness gain over the viral ORF with no human partner (scaled fitness); higher = more likely to interact", "experimental": "as §1"}
{"binder": "B1", "yeast fitness gain": "inactive: -0.0185"}
{"binder": "B2", "yeast fitness gain": "inactive: -0.0176"}
{"binder": "B3", "yeast fitness gain": "inactive: -0.00557"}
{"target": "SARS-CoV-2 NSP14", "test": "yeast fitness gain over the viral ORF with no human partner (scaled fitness); higher = more likely to interact", "experimental": "as §1"}
{"binder": "B1", "yeast fitness gain": "inactive: 0.147"}
{"binder": "B3", "yeast fitness gain": "inactive: 0.0545"}
{"target": "SARS-CoV-2 NSP15", "test": "yeast fitness gain over the viral ORF with no human partner (scaled fitness); higher = more likely to interact", "experimental": "as §1"}
{"binder": "B1", "yeast fitness gain": "inactive: -0.13"}
{"binder": "B2", "yeast fitness gain": "inactive: -0.0916"}
{"binder": "B3", "yeast fitness gain": "inactive: 0.0162"}
{"target": "SARS-CoV-2 NSP16", "test": "yeast fitness gain over the viral ORF with no human partner (scaled fitness); higher = more likely to interact", "experimental": "as §1"}
{"binder": "B1", "yeast fitness gain": "inactive: 0.0796"}
{"binder": "B2", "yeast fitness gain": "inactive: 0.096"}
{"binder": "B3", "yeast fitness gain": "inactive: 0.016"}
{"target": "SARS-CoV-2 NSP2", "test": "yeast fitness gain over the viral ORF with no human partner (scaled fitness); higher = more likely to interact", "experimental": "as §1"}
{"binder": "B1", "yeast fitness gain": "inactive: -0.143"}
{"binder": "B2", "yeast fitness gain": "inactive: -0.241"}
{"binder": "B3", "yeast fitness gain": "inactive: -0.149"}
{"target": "SARS-CoV-2 NSP5", "test": "yeast fitness gain over the viral ORF with no human partner (scaled fitness); higher = more likely to interact", "experimental": "as §1"}
{"binder": "B1", "yeast fitness gain": "inactive: 0.0238"}
{"binder": "B2", "yeast fitness gain": "inactive: 0.0379"}
{"binder": "B3", "yeast fitness gain": "inactive: 0.0274"}
{"target": "SARS-CoV-2 NSP6", "test": "yeast fitness gain over the viral ORF with no human partner (scaled fitness); higher = more likely to interact", "experimental": "as §1"}
{"binder": "B1", "yeast fitness gain": "inactive: -0.0117"}
{"binder": "B2", "yeast fitness gain": "inactive: -0.017"}
{"binder": "B3", "yeast fitness gain": "inactive: 0.0342"}
{"target": "SARS-CoV-2 NSP7", "test": "yeast fitness gain over the viral ORF with no human partner (scaled fitness); higher = more likely to interact", "experimental": "as §1"}
{"binder": "B1", "yeast fitness gain": "inactive: -0.0289"}
{"binder": "B2", "yeast fitness gain": "inactive: -0.00988"}
{"binder": "B3", "yeast fitness gain": "inactive: -0.0694"}
{"target": "SARS-CoV-2 NSP8", "test": "yeast fitness gain over the viral ORF with no human partner (scaled fitness); higher = more likely to interact", "experimental": "as §1"}
{"binder": "B1", "yeast fitness gain": "inactive: -0.0418"}
{"binder": "B2", "yeast fitness gain": "inactive: -0.014"}
{"binder": "B3", "yeast fitness gain": "inactive: 0.0891"}
{"target": "SARS-CoV-2 NSP9", "test": "yeast fitness gain over the viral ORF with no human partner (scaled fitness); higher = more likely to interact", "experimental": "as §1"}
{"binder": "B1", "yeast fitness gain": "inactive: 0.00608"}
{"binder": "B2", "yeast fitness gain": "inactive: -0.0216"}
{"binder": "B3", "yeast fitness gain": "inactive: 0.0418"}
{"target": "SARS-CoV-2 ORF10", "test": "yeast fitness gain over the viral ORF with no human partner (scaled fitness); higher = more likely to interact", "experimental": "as §1"}
{"binder": "B1", "yeast fitness gain": "inactive: -0.0292"}
{"binder": "B2", "yeast fitness gain": "inactive: -0.176"}
{"binder": "B3", "yeast fitness gain": "inactive: 0.0352"}
{"target": "SARS-CoV-2 ORF3A", "test": "yeast fitness gain over the viral ORF with no human partner (scaled fitness); higher = more likely to interact", "experimental": "as §1"}
{"binder": "B1", "yeast fitness gain": "inactive: -0.0425"}
{"binder": "B3", "yeast fitness gain": "inactive: 0.105"}
{"target": "SARS-CoV-2 ORF3B", "test": "yeast fitness gain over the viral ORF with no human partner (scaled fitness); higher = more likely to interact", "experimental": "as §1"}
{"binder": "B1", "yeast fitness gain": "inactive: 0.0404"}
{"binder": "B2", "yeast fitness gain": "inactive: -0.0264"}
{"binder": "B3", "yeast fitness gain": "inactive: 0.00318"}
{"target": "SARS-CoV-2 ORF6", "test": "yeast fitness gain over the viral ORF with no human partner (scaled fitness); higher = more likely to interact", "experimental": "as §1"}
{"binder": "B1", "yeast fitness gain": "inactive: -0.0183"}
{"binder": "B2", "yeast fitness gain": "inactive: -0.0934"}
{"binder": "B3", "yeast fitness gain": "inactive: 0.0459"}
{"target": "SARS-CoV-2 ORF7A", "test": "yeast fitness gain over the viral ORF with no human partner (scaled fitness); higher = more likely to interact", "experimental": "as §1"}
{"binder": "B1", "yeast fitness gain": "inactive: -0.0325"}
{"binder": "B2", "yeast fitness gain": "inactive: 0.0427"}
{"binder": "B3", "yeast fitness gain": "inactive: 0.0725"}
{"target": "SARS-CoV-2 ORF7B", "test": "yeast fitness gain over the viral ORF with no human partner (scaled fitness); higher = more likely to interact", "experimental": "as §1"}
{"binder": "B1", "yeast fitness gain": "inactive: -0.00186"}
{"binder": "B2", "yeast fitness gain": "inactive: 0.0074"}
{"binder": "B3", "yeast fitness gain": "inactive: 0.113"}
{"target": "SARS-CoV-2 ORF8", "test": "yeast fitness gain over the viral ORF with no human partner (scaled fitness); higher = more likely to interact", "experimental": "as §1"}
{"binder": "B1", "yeast fitness gain": "inactive: 0.0173"}
{"binder": "B2", "yeast fitness gain": "inactive: 0.00665"}
{"binder": "B3", "yeast fitness gain": "inactive: 0.038"}
{"target": "SARS-CoV-2 ORF9B", "test": "yeast fitness gain over the viral ORF with no human partner (scaled fitness); higher = more likely to interact", "experimental": "as §1"}
{"binder": "B1", "yeast fitness gain": "inactive: -0.0289"}
{"binder": "B2", "yeast fitness gain": "inactive: 0.0136"}
{"binder": "B3", "yeast fitness gain": "inactive: 0.0296"}
{"target": "SARS-CoV-2 ORF9Bwu (the 73-codon ORF)", "test": "yeast fitness gain over the viral ORF with no human partner (scaled fitness); higher = more likely to interact", "experimental": "as §1"}
{"binder": "B1", "yeast fitness gain": "inactive: -0.0728"}
{"binder": "B2", "yeast fitness gain": "inactive: 0.0289"}
{"binder": "B3", "yeast fitness gain": "inactive: 0.09"}
{"target": "SARS-CoV-2 S", "test": "yeast fitness gain over the viral ORF with no human partner (scaled fitness); higher = more likely to interact", "experimental": "as §1"}
{"binder": "B1", "yeast fitness gain": "inactive: 0.0295"}
{"binder": "B2", "yeast fitness gain": "inactive: 0.0986"}
{"binder": "B3", "yeast fitness gain": "inactive: 0.00905"}
{"target": "SARS-CoV-2 NSP4", "test": "yeast fitness gain over the viral ORF with no human partner (scaled fitness); higher = more likely to interact", "experimental": "as §1"}
{"binder": "B3", "yeast fitness gain": "inactive: 0.348"}
